# The other results are listed elsewhere or left out. Values were computed here from the reads of four pooled replicates and scatter widely.
# Biological target: T1, Pho4 (S. cerevisiae) (UniProt P07270)
# T1 sequence: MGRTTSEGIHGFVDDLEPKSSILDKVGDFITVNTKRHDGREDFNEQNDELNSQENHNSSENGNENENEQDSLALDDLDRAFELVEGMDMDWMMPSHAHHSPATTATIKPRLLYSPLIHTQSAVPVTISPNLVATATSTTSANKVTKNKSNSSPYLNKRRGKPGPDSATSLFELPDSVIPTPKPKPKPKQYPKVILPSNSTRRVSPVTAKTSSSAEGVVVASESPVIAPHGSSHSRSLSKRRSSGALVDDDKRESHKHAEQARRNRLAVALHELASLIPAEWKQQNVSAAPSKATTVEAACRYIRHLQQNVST
# Assay: relative binding free energy (BET-seq); higher = weaker binding
# Details: reference: library average
row,Sequence,relative binding free energy [kcal/mol]
1,CGTAGCACGTGTGCGG,-0.12
2,GTAAGCACGTGATGGA,0.15
3,ATCGTCACGTGATTAG,0.22
4,GTTAACACGTGGGGCT,-0.02
5,TGTGGCACGTGACGAT,-0.13
6,TGATCCACGTGTTGGG,-0.03
7,GGTCTCACGTGGTCTT,0.22
8,TAGAGCACGTGGGCTG,-0.21
9,ATAGTCACGTGGAAGT,0.11
10,TGCAACACGTGGCGGT,-0.03
11,ATTTTCACGTGGCTGC,0.26
12,CGAGTCACGTGGATGG,0.06
13,CAGGTCACGTGGTGAT,-0.02
14,TTAGGCACGTGGGCTG,-0.17
15,ATTAACACGTGTGTTA,-0.03
16,GCGGACACGTGAGGAG,0.5
17,TTTAACACGTGAATGG,0.22
18,TGGGTCACGTGCTACG,0.18
19,GATGTCACGTGGGGTG,-0.03
20,ATGGCCACGTGTTAGG,-0.19
21,ATATCCACGTGTAAGT,0.21
22,TACAGCACGTGGGTTG,-0.26
23,GGTGGCACGTGGCGCG,-0.24
24,TGGAGCACGTGGGGAG,-0.18
25,ATGGTCACGTGGACTG,0.15
26,AGGTGCACGTGTTCCT,0.02

row,Sequence,relative binding free energy [kcal/mol]
1,GTGTTCACGTGCTTGC,0.2
2,AACTTCACGTGTGGGA,0.22
3,TTTATCACGTGAGAAT,0.19
4,TTTGTCACGTGTGCGT,0.16
5,AAGGCCACGTGTGGTA,-0.04
6,AGATGCACGTGGTATG,-0.2
7,AATGGCACGTGAGAGT,0.12
8,GGCGTCACGTGGCTGT,0.05
9,AGTGACACGTGGCATG,-0.07
10,GGCCGCACGTGTGGAG,0.12
11,TCGGCCACGTGTGGGC,0.03
12,AGGCTCACGTGGAATT,0.34
13,GTTAGCACGTGTTTAT,0.13
14,TGGAACACGTGTCGTG,0.04
15,TTCGGCACGTGGTGTG,-0.2
16,TTTATCACGTGCTTGA,0.15
17,CTGTTCACGTGAGTCG,0.51
18,AGTGCCACGTGTCGTG,0.02
19,GATGGCACGTGTACTG,0
20,ATGAACACGTGGATGT,0
21,TGTGCCACGTGGAGGT,-0.1
22,CTCGGCACGTGGGGAG,-0.11
23,TCTGGCACGTGATTTA,-0.02
24,TTGCTCACGTGACGGG,0.3
25,AGAGGCACGTGAATGA,0.23
26,TGGTCCACGTGGGTAC,-0.08

row,Sequence,relative binding free energy [kcal/mol]
1,TCTTGCACGTGTGATA,0.24
2,ATGCTCACGTGAAGTG,0.17
3,TGGCACACGTGTTTAT,0.03
4,GGTTGCACGTGCTCGT,0.11
5,GGCTGCACGTGCTGTT,-0.02
6,TATGGCACGTGTGAAT,0.06
7,TGGGACACGTGTTGAT,0.16
8,GGCCTCACGTGGAGGG,0.2
9,CGGTTCACGTGATTAA,0.4
10,GATAACACGTGAGTTG,0.24
11,CTATGCACGTGACGGG,0.02
12,TTTGTCACGTGAGTCG,0.26
13,CGTGTCACGTGGTGGA,0.02
14,ATAGCCACGTGTGGTA,-0.05
15,TTATACACGTGATGGA,0.16
16,GTGGGCACGTGTCAGG,0.03
17,AGTAACACGTGTTGGA,0.02
18,AAATGCACGTGCAGGT,0.07
19,TTCAGCACGTGAGTAT,0.36
20,GTTTACACGTGGGGCG,0.02
21,TGGGCCACGTGGTAGT,-0.11
22,ACTTACACGTGTTTGG,0.08
23,GGGCACACGTGTTTGT,-0.05
24,GTAGTCACGTGGTGAG,0.06
25,GCGGACACGTGATGGT,0.13
26,GAGTACACGTGTCTGT,0.14

row,Sequence,relative binding free energy [kcal/mol]
1,GTAATCACGTGTGTGT,0.17
2,AGGATCACGTGTTACG,0.24
3,TGATACACGTGCGTGT,-0.07
4,TTTGCCACGTGGGCGT,-0.32
5,TGTTTCACGTGGCGGA,0.16
6,AGGGACACGTGGGCGA,-0.17
7,ATTGGCACGTGGTATC,-0.07
8,GGTGGCACGTGTCGAA,-0.05
9,TGTCGCACGTGTGGAC,0.03
10,GCAGTCACGTGGAGGC,0.33
11,TTTAGCACGTGCTCGG,-0.16
12,GAGAGCACGTGATGTT,-0.07
13,GGCGGCACGTGTCGTA,0.02
14,ACAGTCACGTGTTTTG,0.11
15,TTAGGCACGTGGGATT,-0.08
16,TATTTCACGTGGTGAT,0.3
17,AGTGTCACGTGTGGGG,0.06
18,CAGGTCACGTGTTAAT,0.19
19,TCAGACACGTGGGAGG,-0.07
20,TTTGGCACGTGCACGG,-0.14
21,CCTATCACGTGGGTGG,0.09
22,GTGGGCACGTGTCAAT,-0.09
23,AGATTCACGTGTTCGT,0.29
24,GAAGTCACGTGAAAGG,0.28
25,TATATCACGTGTAGCG,0.12
26,ATTTTCACGTGGGGTT,0.19

row,Sequence,relative binding free energy [kcal/mol]
1,ATTAGCACGTGATTTG,0.19
2,ATGGGCACGTGGCGAA,-0.26
3,GTGTTCACGTGCTGTA,0.2
4,CGGAGCACGTGGGTGA,-0.15
5,TTGAGCACGTGTTGAA,0.01
6,GGTTACACGTGTTGCT,0.18
7,ATAATCACGTGGGGAT,-0.04
8,GTAGGCACGTGCGGTA,-0.04
9,ACTGGCACGTGGTGAG,-0.07
10,CTGGGCACGTGTCTGG,-0.18
11,TTAGTCACGTGTTAGG,0.17
12,GAGTACACGTGGCGGG,0.03
13,AGGAACACGTGGAGGG,-0.02
14,AGGGTCACGTGTTTTC,0.1
15,TGTATCACGTGGGTTA,-0.11
16,GGAGTCACGTGAGTGA,0.46
17,TCGGGCACGTGTCGGA,-0.05
18,TCTATCACGTGGGTGT,0.09
19,GGTTGCACGTGTGACT,0.01
20,GATAACACGTGGGTTT,0.06
21,CTTGACACGTGGTTAT,0.01
22,ACGGTCACGTGGTGGT,0.09
23,CAGGTCACGTGGACGG,0.11
24,GCATGCACGTGTGAGG,0.1
25,CTTGTCACGTGTAGGA,0.07
26,GTTCTCACGTGGAGGT,0.13

row,Sequence,relative binding free energy [kcal/mol]
1,TTGGCCACGTGGAAGG,-0.05
2,TCATTCACGTGGAAGG,0.29
3,GTTCACACGTGAGGAG,0.24
4,TATGGCACGTGTTCTT,-0.01
5,AAGGGCACGTGGCCGG,-0.16
6,TGGGTCACGTGATGGT,0.31
7,GTTGCCACGTGGGCTG,-0.25
8,TGGTGCACGTGGCATA,-0.15
9,TTTCACACGTGTGATT,0.11
10,ATGCGCACGTGGTGGA,-0.16
11,TGAGCCACGTGGTTAT,-0.08
12,GGCGACACGTGGGGGG,-0.05
13,ACTATCACGTGGGTAG,0.06
14,TGGTACACGTGGCTTT,-0.02
15,AGGGTCACGTGCGTCG,-0.08
16,TGACACACGTGTGTTG,-0.07
17,GTGGTCACGTGGATGC,0.14
18,TCATACACGTGTTTGT,-0.1
19,CATGTCACGTGGCATG,0.06
20,AATTGCACGTGATGAT,0.04
21,GTTGGCACGTGATCTG,-0.08
22,ATGCACACGTGTTTTG,-0.02
23,GGGTGCACGTGCTAGC,0.03
24,GGATTCACGTGTCGAG,0.27
25,GATGCCACGTGTTGGT,0.09
26,AGCAGCACGTGGGGGC,-0.34

row,Sequence,relative binding free energy [kcal/mol]
1,TGGCGCACGTGATTTA,0.05
2,ATGGTCACGTGTCGTT,-0.01
3,TATATCACGTGCGAGT,0.29
4,TGGGTCACGTGTGCTC,0.17
5,TTAGGCACGTGAACTT,0.04
6,CAGGTCACGTGGTAGG,0.02
7,TACTTCACGTGAGTTG,0.34
8,CGGGTCACGTGTGAGA,0.24
9,TGGAACACGTGGCAGT,0.02
10,GCTGTCACGTGTTGAA,0.24
11,GATTTCACGTGTCGTA,0.35
12,ATCTGCACGTGCGGTG,-0.06
13,GTATACACGTGTTTTT,0.13
14,TAGCTCACGTGTAGCG,0.26
15,AATTGCACGTGGGATC,0.02
16,AAATGCACGTGCGGTG,-0.11
17,AGAATCACGTGTAAAG,0.3
18,AGGCTCACGTGGATGG,0.32
19,AGTCACACGTGGAGGG,0.11
20,GGTATCACGTGCCTGG,0.23
21,GTGTGCACGTGGTGAG,-0.04
22,ACTAACACGTGAGGTT,0.3
23,AGTGTCACGTGTCGGC,0.02
24,TTTGTCACGTGTAAAA,0.29
25,TGAATCACGTGGCGTG,0.05
26,AGAGACACGTGAGGTA,0.25

row,Sequence,relative binding free energy [kcal/mol]
1,GAATGCACGTGAATTT,0.28
2,ATGGACACGTGGGTTT,-0.15
3,GTCGTCACGTGTAAGT,0.3
4,CATAGCACGTGGTTGG,-0.17
5,TAGGACACGTGTCGGA,0.11
6,TTTGACACGTGGAAGT,0.09
7,GTTTTCACGTGGCTGC,0.23
8,GCAGGCACGTGATTGG,0.07
9,AAAAGCACGTGTTTGG,-0.2
10,TGGATCACGTGGCAGG,0.11
11,TGGTACACGTGGGATC,-0.02
12,AGTCGCACGTGTGGGC,0.02
13,AATTGCACGTGCGTTT,-0.12
14,TCGCTCACGTGAGGGT,0.16
15,TTAGTCACGTGTGTTT,0.1
16,TAATTCACGTGGGGTT,0.07
17,TGTAACACGTGTGTTC,0.04
18,GGATACACGTGGTGTC,-0.01
19,CTGGGCACGTGTGGTT,-0.14
20,TTCCACACGTGTGTGT,0.09
21,GCTGGCACGTGCTCGT,-0.04
22,TTATTCACGTGTTTCA,0.26
23,AATTGCACGTGTTTTT,0.02
24,AGATGCACGTGATTTA,0.11
25,AAAGTCACGTGGTAAA,0.19
26,CGTTGCACGTGGTGGG,0.02

row,Sequence,relative binding free energy [kcal/mol]
1,TACGGCACGTGTTTAA,0
2,GAGATCACGTGGTTAT,0.15
3,GATTGCACGTGTGGAG,0.11
4,TATGACACGTGGTTGA,-0.12
5,ATGAGCACGTGTTCTG,-0.03
6,TGGTTCACGTGTCTAA,0.53
7,TTCTGCACGTGAAGTG,0.05
8,TGGAACACGTGGTCTT,-0.02
9,AAAAGCACGTGGTTAT,-0.09
10,GGGATCACGTGCTGGG,0.22
11,GGTCGCACGTGGAGTG,0.02
12,TTTCACACGTGCGGTT,0.01
13,TGTCGCACGTGTCTGG,-0.07
14,GATGTCACGTGAAGAG,0.28
15,GGGGTCACGTGAACAG,0.19
16,AGCTGCACGTGTAGTT,-0.06
17,TGACTCACGTGTGGTA,0.1
18,TGAGCCACGTGTGTGG,-0.15
19,GTGGCCACGTGTGGAT,-0.04
20,AATTGCACGTGGTTCG,-0.13
21,GAGATCACGTGTTAGT,0.06
22,GTAAGCACGTGTCGGA,0.14

# Reference: the BET-seq Pho4 binding data (Le et al. 2018)
